Measurements from PubChem BioAssay AID1468 (National Center for Advancing Translational Sciences (NCATS), 2008).
Out of some 280,000 compounds screened, about 1,100 (0.39%) were called active. Inconclusive means that the source gave no clear call. Such entries were picked first, then a sample of the others. The call rests on the fitted dose curve; in most records, active means well fitted inhibition curve with a large enough effect; inconclusive means small, poorly fitted or top-dose-only effect, or effect the other way; inactive means flat fitted curve, though single readings scatter. Potencies of inconclusive entries are left out as doubtful fits.
Further: nearly all actives have a fitted effect of over 55% in size.
On the % scale 0 is the no-effect control and ±100 the full control effect; potency means the concentration at half of the fitted maximal effect; tags describe the fitted curve by direction and shape.

Each compound was assayed against Microtubule-associated protein tau (Homo sapiens) (UniProt P10636) (assay: qHTS for Inhibitors of Tau Fibril Formation, Fluorescence Polarization). Conditions: K18 P301L tau heparin fibrillization, Alexa594 FP, 6 h; series mostly up to 57.7 µM; activity, negative = inhibition: at the top concentration.
Chain of UniProt P10636 (P10636 whole entry, looked up): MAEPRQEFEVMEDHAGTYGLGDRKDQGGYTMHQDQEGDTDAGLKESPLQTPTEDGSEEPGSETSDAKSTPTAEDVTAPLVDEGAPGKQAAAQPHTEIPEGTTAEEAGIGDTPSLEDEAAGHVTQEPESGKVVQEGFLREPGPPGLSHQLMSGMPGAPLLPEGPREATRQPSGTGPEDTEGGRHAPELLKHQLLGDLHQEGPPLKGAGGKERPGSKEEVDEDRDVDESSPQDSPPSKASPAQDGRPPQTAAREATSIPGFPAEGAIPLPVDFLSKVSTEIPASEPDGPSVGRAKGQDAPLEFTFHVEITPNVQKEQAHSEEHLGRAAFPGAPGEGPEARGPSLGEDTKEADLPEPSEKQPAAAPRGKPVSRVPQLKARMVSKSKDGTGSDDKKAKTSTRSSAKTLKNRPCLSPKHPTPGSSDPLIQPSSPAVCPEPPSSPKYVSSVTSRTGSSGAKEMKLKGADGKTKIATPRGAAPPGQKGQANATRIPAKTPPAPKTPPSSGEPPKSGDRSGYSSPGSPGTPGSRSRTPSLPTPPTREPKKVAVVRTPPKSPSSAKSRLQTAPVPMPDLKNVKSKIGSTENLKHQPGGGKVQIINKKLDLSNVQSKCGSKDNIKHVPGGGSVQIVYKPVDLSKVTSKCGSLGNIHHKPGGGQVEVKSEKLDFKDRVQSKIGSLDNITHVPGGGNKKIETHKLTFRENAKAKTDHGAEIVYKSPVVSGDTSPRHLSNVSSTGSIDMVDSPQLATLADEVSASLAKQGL
How it was run: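 Read-out: fluorescence polarization of Alexa 594-labeled tau (0.24 uM), 555 nm excitation, 632 nm emission. Mixtures held 15 uM unlabeled K18 P301L, compound and 20 uM heparin, pH 7 acetate buffer, incubated 6 hr at 37 C.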
For `CCN(CC)S(=O)(=O)c1cccc(NC(=O)Nc2cccc(C(F)(F)F)c2)c1`, the Potency was active: 7.94 µM. With `COc1ccc(OC)c(NC(=O)CSc2nnc(Cc3cccn3C)n2CCc2ccccc2)c1` the Potency was inconclusive [inhibitor, single point]. With `CCOc1ccc(-c2nnc(SCC(=O)Nc3ccc4c(c3)c3ccccc3n4CC)n2N)cc1` the Potency was inconclusive [inhibitor, single point]. For `NC(=O)c1cc(N)ccc1N1CCCC1`, the Potency was inconclusive [inhibitor, single point]. For `COc1ccc(-c2nc3sc(CCNC(=O)C(C)(C)C)c(C)n3n2)cc1`, the Potency was inconclusive [inhibitor, single point]. In the case of `COc1ccccc1C(C)NCC(=O)Nc1ccccc1C(F)(F)F` (stereo unspecified), the “activity, negative = inhibition” value is reported as inactive: 3.95%. With `O=C(Nc1ccc(F)c(Cl)c1)c1cc(S(=O)(=O)NCc2ccc3c(c2)OCO3)ccc1F` the Potency was inconclusive [inhibitor, partial curve]. In the case of `CCOC(=O)c1ccc(NC(=O)c2nc[nH]c2C(=O)NCc2ccccc2)cc1`, the Potency is reported as inconclusive [inhibitor, partial curve]. For `CCc1ccc(NC(=O)COc2ccc(F)cc2C(=O)c2cnn(-c3ccccc3)c2)cc1`, the Potency was inconclusive [inhibitor, single point]. `CCOc1ccc2nc(N3CCCC(C(=O)NCCc4ccc(OC)cc4OC)C3)sc2c1` (stereo unspecified) was tested, and the “activity, negative = inhibition” value was inactive: 8.04%. With `O=C(CNS(=O)(=O)c1ccc(Br)s1)N1CCN(c2ccc(F)cc2)CC1` the “activity, negative = inhibition” value was inactive: 5.1%. In the case of `CCOc1ccc(C(=O)Nc2cc(-c3nc4ccccc4[nH]3)ccc2C)cc1[N+](=O)[O-]`, the Potency is reported as inconclusive [inhibitor, single point]. In the case of `COCCNS(=O)(=O)c1cc(-c2nn3c(C)nnc3c3ccccc23)ccc1C`, the Potency is reported as inconclusive [inhibitor, full curve, poor fit]. In the case of `Cc1oc2ccc(OC(=O)c3cccs3)cc2c1C(=O)OC(C)C`, the Potency is reported as inconclusive [inhibitor, partial curve, poor fit]. For `CCOC(=O)c1cnc(NCc2ccc(OC)cc2OC)c2ccccc12`, the Potency was inconclusive [inhibitor, single point]. With `Cc1ccc(OC(=O)CSc2nnc(-c3ccc4c(c3)OCO4)o2)c(C)c1` the Potency was inconclusive [activator, full curve, poor fit]. For `COc1ccc2c(c1)c1c(c(=O)n(Cc3ccccc3)c(=O)n1CC(=O)Nc1ccccc1F)n2C`, the “activity, negative = inhibition” value was inactive: 2.14%. For `CCn1c(C(=O)N2CCC(C(=O)NCc3ccc4c(c3)OCO4)CC2)cc2sccc21`, the “activity, negative = inhibition” value was inactive: 0.925%. `O=C(O)/C=C/C(O)c1ccc(Cl)cc1` (stereo unspecified) was tested, and the “activity, negative = inhibition” value was inactive: -4.41%. With `Nc1nc2c(ncn2C2OC(COC(=O)c3ccccc3)C(OC(=O)c3ccccc3)C2OC(=O)c2ccccc2)c(=O)[nH]1` (stereo unspecified) the Potency was inconclusive [inhibitor, partial curve]. In the case of `CC(C)C(NS(=O)(=O)c1cccs1)C(=O)Nc1nc(C(C)(C)C)cs1` (stereo unspecified), the Potency is reported as inconclusive [inhibitor, single point]. With `CCOC(=S)SCC(=O)Nc1nc(C)c(C)s1` the “activity, negative = inhibition” value was inactive: -6.48%. `Cc1cc(-c2n[nH]c(=S)n2/N=C/c2ccc(Cl)c([N+](=O)[O-])c2)n[nH]1` was tested, and the “activity, negative = inhibition” value was inactive: 5.26%. In the case of `COc1ccc(N2C(=S)NC3N2C(=S)NC3(C)c2ccccc2)cc1` (stereo unspecified), the “activity, negative = inhibition” value is reported as inactive: -16.6%. For `CCOC(=O)c1ccc(CN(Cc2ccc(F)cc2)S(=O)(=O)c2ccc(F)c(C(=O)Nc3ccccc3C(F)(F)F)c2)cc1`, the “activity, negative = inhibition” value was inactive: -11.2%. In the case of `O=C1c2ccccc2-c2onc3ccc(Oc4ccccc4)c1c23`, the Potency is reported as inconclusive [inhibitor, partial curve]. `CCc1ccccc1N(CC)C(=O)C(=O)Nc1ccc2nc3n(c(=O)c2c1)CCCCC3` was tested, and the Potency was inconclusive [inhibitor, single point]. `COc1cc(Cl)c(C)cc1NC(=O)C1CCCN(c2ncnc3onc(-c4ccc(F)cc4)c23)C1` (stereo unspecified) was tested, and the “activity, negative = inhibition” value was inactive: -9.68%. With `CSc1ccccc1NC(=O)Nc1cccc(F)c1` the Potency was inconclusive [inhibitor, single point]. With `COc1ccc(C2=CC3=C(Br)C(=O)C(C)(OC(=O)c4cnc5ccccc5n4)C(=O)C3=CO2)cc1` (stereo unspecified) the Potency was inconclusive [inhibitor, partial curve]. With `CCNC(=S)N/N=C(\C)c1ccc2ccccc2c1OC(F)F` the “activity, negative = inhibition” value was inactive: -7.84%. With `O=C(O)c1ccccc1NS(=O)(=O)c1ccc(NNC(=S)Nc2ccc(OC(F)F)cc2)c([N+](=O)[O-])c1` the Potency was active: 25.1 µM. For `CN(C)c1ccc(NS(=O)(=O)c2ccc(-c3csnn3)cc2)cc1`, the “activity, negative = inhibition” value was inactive: -1.64%. `O=C(CSc1nnc(SCc2ccccc2)s1)N/N=C/C=C/c1ccco1` was tested, and the Potency was inconclusive [inhibitor, single point]. For `Cn1cc(C=O)c2cc(F)ccc21`, the “activity, negative = inhibition” value was inactive: -0.942%. In the case of `COc1ccc(S(=O)(=O)N2CCC(N3CCCCC3)CC2)cc1`, the “activity, negative = inhibition” value is reported as inactive: -0.922%. In the case of `COc1ccc2c(c1)CCN(C(=O)CCl)C2C1C(=O)CCCC1=O` (stereo unspecified), the “activity, negative = inhibition” value is reported as inactive: -4.87%. `COc1cc2ncnc(Nc3cccc(Br)c3)c2cc1OC` was tested, and the Potency was inconclusive [inhibitor, partial curve]. With `CCOC(=O)c1nn(-c2ccccc2)c(C#N)c1NC(=O)c1nn(CC)cc1Br` the Potency was inconclusive [activator, partial curve]. In the case of `C#CCNC(=O)C1=C[C@H](c2ccc(C(F)(F)F)cc2)[C@@H](CCCO)[C@H](OCC)O1`, the “activity, negative = inhibition” value is reported as inactive: 7.78%. For `O=C(NCc1ccc(Cl)cc1)C(=O)NCC(c1ccc2c(c1)OCO2)N1CCOCC1` (stereo unspecified), the Potency was inconclusive [inhibitor, single point]. With `COc1cc2ccccc2cc1C(=O)N1CCN(c2nc3c(F)cccc3s2)CC1` the Potency was inconclusive [inhibitor, full curve]. In the case of `COc1cccc(C2=CC(c3cccc(OC)c3OC(F)F)n3nnnc3N2)c1` (stereo unspecified), the Potency is reported as inconclusive [inhibitor, single point]. For `Cc1cc([N+](=O)[O-])ccc1NCc1ccccc1`, the “activity, negative = inhibition” value was inactive: -6.2%. `Cc1cccc(/C=C/C(=O)c2cc(Br)ccc(=O)c2O)c1` was tested, and the Potency was inconclusive [inhibitor, partial curve]. `Nc1nonc1C(=Nc1ccccc1)NO` was tested, and the Potency was inconclusive [inhibitor, partial curve, poor fit]. With `Nc1cc(-c2ccc(Br)cc2)nn1Cc1ccccc1` the Potency was inconclusive [activator, partial curve]. For `CCn1c(C)[n+](Cc2ccccc2)c2ccc(C(=O)OC)cc21`, the “activity, negative = inhibition” value was inactive: 6.5%. For `COc1ccccc1CC(=O)NC1CCCc2ccccc21` (stereo unspecified), the “activity, negative = inhibition” value was inactive: -5.54%. In the case of `O=C(CSc1nnc(NC2CCCCC2)s1)Nc1ccc2c(c1)C(=O)c1ccccc1C2=O`, the Potency is reported as inconclusive [activator, full curve, poor fit]. For `COc1cccc(/C=N/NC(=O)c2[nH]nc3c2CCc2ccccc2-3)c1`, the Potency was inconclusive [inhibitor, partial curve]. In the case of `CCNC(=S)NNC(=O)c1ccncc1`, the “activity, negative = inhibition” value is reported as inactive: 2.53%. With `CCN(CC(=O)Nc1ccc2c(c1)OC(F)(F)O2)Cc1nc2ccccc2c(=O)[nH]1` the “activity, negative = inhibition” value was inactive: -11.2%. With `COc1ccc(NC(=O)N2CCc3c([nH]c4ccc(OC)cc34)C2c2ccc(OC)cc2)cc1` (stereo unspecified) the Potency was inconclusive [activator, full curve, poor fit]. For `CCOC(=O)C1CCN(S(=O)(=O)c2ccc(OC)c(Cl)c2)CC1`, the “activity, negative = inhibition” value was inactive: -12.3%. With `COc1ccc(CC(=O)NN2C(=O)c3ccccc3C2=O)cc1` the “activity, negative = inhibition” value was inactive: 3.34%. `CC(NC(=O)c1sc2ncccc2c1-n1cccc1)c1ccccc1` (stereo unspecified) was tested, and the “activity, negative = inhibition” value was inactive: 0.938%. For `CCOc1ccc2nc3sc(C(=O)N4CCOCC4)c(N)c3cc2c1`, the Potency was inconclusive [activator, partial curve, poor fit]. For `COc1ccc(CCN(Cc2cccs2)S(=O)(=O)c2ccc(-n3cnnn3)cc2)cc1OC`, the Potency was inconclusive [inhibitor, full curve, poor fit]. `CSc1cccc(Nc2cc(C(=O)NCCCN(Cc3ccccc3)C(C)C)c3ccccc3n2)c1` was tested, and the Potency was inconclusive [inhibitor, partial curve]. `Cc1c(C(=O)OC/C(O)=C(\C#N)c2nc3ccccc3[nH]2)oc2ccccc12` was tested, and the Potency was inconclusive [inhibitor, single point]. For `Cc1ccc(CCNc2ncnc3onc(C)c23)cc1`, the “activity, negative = inhibition” value was inactive: -0.0859%. For `COc1cccc(C(=O)Nc2nc3c(c(=O)[nH]2)CCCC3)c1`, the Potency was inconclusive [inhibitor, single point]. `CC(=O)NC1=C(N(C)C2CCS(=O)(=O)C2)C(=O)c2ccccc2C1=O` (stereo unspecified) was tested, and the Potency was inconclusive [inhibitor, partial curve]. With `CC(=O)Oc1cc2oc(=O)c3c(c2cc1Cl)CCC3` the Potency was active: 17.8 µM. For `COCCCNC(=O)C1CCCN(S(=O)(=O)c2ccc3c(c2)oc(=O)n3C)C1` (stereo unspecified), the “activity, negative = inhibition” value was inactive: -5.68%. With `CCOCCCNC(=O)c1c[nH]c2ccc(S(=O)(=O)Nc3cccc(Cl)c3C)cc2c1=O` the Potency was inconclusive [inhibitor, partial curve]. In the case of `CC(C)C(=O)Nc1cccc(-c2csc(-c3ccccc3)n2)c1`, the Potency is reported as inconclusive [inhibitor, single point]. In the case of `Nc1c(-c2nc(-c3ccc(Cl)cc3)no2)nnn1-c1ccc(C(F)(F)F)c(Cl)c1`, the Potency is reported as inconclusive [inhibitor, full curve]. In the case of `COc1cc(NC(=O)c2cc(C3CC3)nc3c2c(C)nn3-c2ccc(C)cc2)cc(OC)c1`, the Potency is reported as inconclusive [inhibitor, single point]. With `COC(=O)c1sc(-c2cccs2)cc1N` the Potency was inconclusive [inhibitor, single point].
